The assay concerns cellular ATP levels. The following applies: for ATP (composite Z-score): normalized score vs mock-treated (DMSO) wells.
Setting [1] is: composite Z-score vs mock-treated (DMSO) wells, Conc 20 μM.
Setting [2] is: composite Z-score vs DMSO, Conc 20 μM.
Setting [3] is: normalized composite Z-score vs mock-treated (DMSO) wells, Conc 20 μM.
Where [4] appears, read: 20 μM, composite Z-score vs DMSO.
Setting [5] is: Table 4, C2C12 myotubes, 48 h, composite Z-score.

Where two headings read alike, the source gives them in different places.

Take `C[C@]12CCC(=O)C=C1CCc1ccc(O)cc12`: under setting [1], the ATP stood at 0.589.
Under setting [2], `COc1ccc2c(c1)C1(C)CCC(O)CC1CC2` (stereo not shown) came in with an ATP of 0.068.
The compound `COc1cc2c(cc1OC)C1(O)C(=O)c3ccc(O)c(C(=O)O)c3OC1CO2` (stereo not shown) had an ATP under setting [3] of 1.728.
Take `Cc1ccc2c(c1)CC[C@H]1CC(=O)CC[C@]21C`: the ATP under setting [1] is −0.267.
As to `COc1cccc2c1CCC1=CC(=O)CCC12C` (stereo not shown), the ATP under setting [1] is given as −0.516.
With `COc1cccc2c1CCC1CC(=O)CCC21C` (stereo not shown), the ATP under setting [3] worked out at 2.441.
As to `CC1(C)C2CC(=O)[C@]3(C)C(CC[C@@]4(C)[C@H](c5ccoc5)OC(=O)[C@H]5O[C@]543)[C@@]2(C)C(=O)C[C@H]1O` (stereo partly shown), the ATP under setting [3] is recorded as −0.155.
Turning to `CCOC(=O)c1oc2c(OC)c(O)cc(O)c2c(=O)c1-c1cc(OC)c(OC)c(OC)c1`, the ATP under setting [1] is recorded as 0.782.
`COC1CC(C)C2OC2CC(C)C2CC(C)(C)C12` (stereo not shown) gave an ATP under setting [3] of 0.358.
Still for that read-out and setting: as for `C=C1CCC(C2CC(=O)OC2=O)C(=O)CCC2C1CC2(C)C` (stereo not shown), the figure is −0.614.
`CCOc1ccc(C(=O)C2=C(O)C(OC)C(O)(OC)C=C2)cc1` (stereo not shown): the “ATP (composite Z-score)” value (Conc 20 μM) turned out to be 0.418.
Take `CCOc1cc(CC(=O)c2ccc(O)c(O)c2O)ccc1O`: the “ATP (composite Z-score)” value (Conc 20 μM) came to 0.234.
On to `CC12CCC(O)CC1CCc1ccccc12` (stereo not shown), for which the “ATP (composite Z-score)” value (Conc 20 μM) is reported as −0.736.
Same read-out and setting: under `CC(=O)O[C@H]1CC[C@]2(C)C(C[C@H](OC(C)=O)[C@]3(C)C4=CC(=O)OC(c5ccoc5)[C@@]4(C)CCC23)C1(C)C` (stereo partly shown) stands −0.198; under `COc1ccc2c(c1)C1(C)CCC(=O)CC1CC2` (stereo not shown) [listing 1 of 2 here], −0.133.
The compound `COc1ccc2c(c1)C1(C)CCC(=O)CC1CC2` (stereo not shown) [listing 2 of 2 here] yielded an ATP under setting [3] of 0.458.
For the compound `O=C(O)c1nc2cc(Cl)c(Cl)cc2nc1O`, the “ATP (composite Z-score)” value (Conc 20 μM) was 0.893.
Under setting [3], `CC1(C)CC2C1CC[C@]1(CBr)CCC3C(CC(=O)O)C(=O)O[C@@]32C1` (stereo partly shown) registered an ATP of −0.346.
In turn, `COC(=O)[C@@H]1OC(=O)C2OC23[C@@]1(C)CCC1[C@]2(C)C(C[C@@H](O)[C@]13C)C(C)(C)[C@H](OC(C)=O)C[C@@H]2OC(C)=O` (stereo partly shown) gave an ATP under setting [1] of 0.731.
The compound `COC(=O)CCC(=O)O[C@H]1CC[C@@]2(C)[C@@H](CC[C@@H]3[C@@H]2C(=O)C(O)[C@]2(C)[C@@H]4[C@H](C[C@@H]32)O[C@]2(CC[C@@H](C)CO2)[C@H]4C)C1` (stereo partly shown) returned an ATP under setting [2] of −0.092.
As for `COC(=O)c1cccc2cc(OC)c(OC)c(OC)c2c1=O`, under setting [1], the ATP turned out to be 0.028.
As to `NC(=O)c1ccc[n+]([C@@H]2O[C@H](COP(=O)([O-])OP(=O)(O)OC[C@H]3O[C@@H](n4cnc5c(N)ncnc54)[C@H](OP(=O)(O)O)[C@@H]3O)[C@@H](O)[C@H]2O)c1`, the ATP under setting [4] is 0.550.
In turn, 1,2alpha-epoxydeacetoxydihydrogedunin had an ATP under setting [3] of −0.934.
On the same count and under the same terms, as for “2-hydroxy-5 (6)epoxy-tetrahydrocaryophyllene”, the figure is −0.149; as for 3,7-epoxycaryophyllan-6-one, −0.022.
Turning to “3-deoxo-3beta-acetoxydeoxydihydrogedunin”, the ATP under setting [1] was −0.605.
“3-deoxo-3beta-hydroxymexicanolide 16-enol ether” yielded an ATP under setting [1] of −0.075.
Consider 3-nor-3-oxopanasinsan-6-ol, for which the ATP under setting [3] is recorded as 0.158.
In turn, “3alpha-hydroxy-3-deoxyangolensic acid methyl ester” displayed an ATP under setting [1] of 0.398.
With 3beta-chloroandrostanone, the ATP under setting [1] is 1.376.
Take “3beta-hydroxydeoxydesacetoxy-7-oxogedunin”: the “ATP (composite Z-score)” value (Conc 20 μM) is 0.198.
Under setting [1], “7-deshydroxypyrogallin-4-carboxylic acid” gave an ATP of 0.330.
“12a-hydroxy-5-deoxydehydromunduserone [reference compound]” showed an ATP under setting [3] of −0.089.
On to `C#CC1(O)CC[C@H]2[C@@H]3CCC4=CC(=O)CC[C@@H]4[C@H]3CC[C@@]21CC` (mixture of isomers) [norgestrel], for which the ATP (composite Z-score vs DMSO wells, Conc 20 μM) was found to be 0.593.
As for `O=C1c2ccc(O)cc2OC(c2cc(O)c(O)c(O)c2)C1O` (stereo in doubt) [dihydrorobinetin, reference compound], under “Conc 20 μM”, the “ATP (composite Z-score)” value came to 0.456. Under setting [5], the ATP is listed as 0.456.
As to `C[C@H](C[C@@H](O)[C@@H]1OC1(C)C)[C@@H]1CC[C@]2(C)C3=CC[C@H]4C(C)(C)C(=O)CC[C@]4(C)[C@H]3CC[C@@]12C` (stereo in doubt) [niloticin], under setting [1], the ATP is on record as 0.356.
Consider `CC[C@@H](C)C(=O)O[C@H]1[C@H](O)[C@H]2[C@@H](CN3C[C@@H](C)CC[C@H]3[C@@]2(C)O)[C@@H]2C[C@]34O[C@]5(O)[C@@H](OC(=O)[C@](C)(O)[C@@H](C)O)CC[C@@]3(C)[C@@H]5[C@@H](OC(C)=O)[C@@H](OC(C)=O)[C@H]4[C@@]21O` (stereo in doubt) [protoveratrine B], for which the ATP under setting [2] is 0.029.
Take `CC1(C)C2CC(=O)[C@]3(C)C(CC[C@@]4(C)[C@H](c5ccoc5)OC(=O)C5OC543)[C@@]2(C)[C@@H](O)C[C@H]1O` (stereo partly shown) [1,3-dideacetyl-7-deacetoxy-7-oxokhivorin]: the ATP under setting [3] was −0.006.
Consider `CC(=O)O[C@@H]1C[C@H]2C(C)(C)[C@H](O)C[C@H](O)[C@]2(C)[C@H]2CC[C@@]3(C)[C@H](c4ccoc4)OC(=O)[C@H]4O[C@]43[C@@]21C` [1,3-dideacetylkhivorin], for which the ATP under setting [2] was 0.959.
Consider `Cc1cc(O)c2c(c1O)C(=O)c1c(O)cc(C)c(O)c1C2=O` [1,4,5,8-tetrahydroxy-2,6-dimethylanthroquinone, reference compound], for which the ATP by setting is: under setting [5], −0.346; under setting [2], −0.346.
As for `CC(=O)O[C@@H]1CC(=O)[C@@]2(C)C(CC(=O)[C@]3(C)C2CC[C@@]2(C)[C@H](c4ccoc4)OC(=O)C4OC423)C1(C)C` (stereo partly shown) [1,7-dideacetoxy-1,7-dioxokhivorin], the ATP under setting [1] is reported as 0.712.
In the case of `CC1(C)C2C[C@@H](O)[C@]3(C)C(CC[C@@]4(C)[C@H](c5ccoc5)OC(=O)C5OC543)[C@@]2(C)C(=O)C[C@H]1O` (stereo partly shown) [1-deacetoxy-1-oxo-3,7-dideacetylkhivorin], the “ATP (composite Z-score)” value (Conc 20 μM) is given as −0.222.
Compound `C[C@@H](N)[C@@H](O)c1ccccc1` [1S,2R-phenylpropanolamine] had an ATP of −0.204.
As for `CC1(C)[C@H]2CC[C@@]1(C)C(=O)C2` [1r-camphor], the ATP under setting [4] is listed as 0.270.
On to `COc1ccc2c(c1OC)C(=O)O[C@@H]2[C@H]1c2cc3c(cc2CCN1C)OCO3` [1s,9r-hydrastine], for which the ATP under setting [2] is reported as 0.403.
Take `CCOc1ccc(C(=O)c2ccc(O)c(O)c2O)cc1` [2,3,4-trihydroxy-4′-ethoxybenzophenone]: the “ATP (composite Z-score)” value (Conc 20 μM) is recorded as 1.562.
Take `COc1ccc(C(=O)c2ccc(O)cc2)c(O)c1O` [2,3,4′-trihydroxy-4-methoxybenzophenone]: the ATP under setting [3] was −0.035.
In the case of `CC(=O)O[C@@H]1C[C@H]2C(C)(C)CCC(=O)[C@]2(C)[C@H]2CC[C@@]3(C)[C@H](c4ccoc4)OC(=O)[C@H]4O[C@]43[C@@]21C` [2,3-dihydroisogedunin], the “ATP (composite Z-score)” value (Conc 20 μM) came out at 0.069.
For the compound `Oc1nc2cc(Cl)c(Cl)cc2nc1O` [2,3-dihydroxy-6,7-dichloroquinoxaline], the “ATP (composite Z-score)” value (Conc 20 μM) was 0.984.
`COC1=CC(=O)C(C(=O)c2ccccc2)=CC1=O` [2-benzoyl-5-methoxybenzoquinone] yielded an ATP under setting [2] of 0.353.
